Source: PubChem BioAssay AID463173 (ICCB-Longwood Screening Facility, Harvard Medical School, 2010)
The whole screen tested about 52,000 compounds, of which about 1,700 (3.3%) were called active. No stated cut-off is given here; in the data, active means survival mostly below about 52% (no sharp cut-off); inactive means mostly above about 56%. This is one part of the list.

What follows are molecules tested on Wild type (assay: S. aureus survival, RN4220 and DeltatarO strains – OD600, teichoic acid synthesis inhibitors, primary screen (AID 463173)). Details: S. aureus RN4220 wild type/DeltatarO growth, OD600, 18 h, hits give low values, screened at 18.75 µg/mL (by protocol).
With `O=C(CN1CCCCC1)N/N=C/c1ccc(Cl)cc1` the survival was inactive: 102%. With `CCN1CCN(Cc2c(O)ccc3c(C)c(-c4ccccc4)c(=O)oc23)CC1` the survival was inactive: 74%. With `CCCCN1C(=O)CN(C2CCCCC2)C(=O)C1c1ccc(OC(C)C)c(OC)c1` (stereo not drawn) the survival was inactive: 81%. `Cc1cccc(-n2ncc(C(=O)NCc3ccccn3)c2C2CCN(C(=O)OC(C)(C)C)CC2)c1` was tested, and the survival was inactive: 75%. In the case of `CC1CCCC(C)N1C(=O)c1cc2sccc2n1Cc1ccc(F)cc1` (stereo not drawn), the survival is reported as inactive: 110%. `COc1ccc(CNc2cc(-c3ccc(OC)cc3)nc3nncn23)cc1` was tested, and the survival was inactive: 75%. In the case of `O=C(CSc1nc2c(c(=O)[nH]1)CCCC2)Nc1ccc(Br)cc1`, the survival is reported as inactive: 71%. In the case of `Cc1ccc(NC(=O)Cn2c(=O)n(CCC(=O)NCc3ccc4c(c3)OCO4)c(=O)c3sccc32)c(C)c1`, the survival is reported as inactive: 96%. In the case of `Cc1ccc(C)c(N2CCN(c3nc4ccccc4n4c(C)nnc34)CC2)c1`, the survival is reported as inactive: 87%. For `Cc1ccc(NC(=O)C(c2ccccc2)N2Cc3ccccc3C2=O)cc1Cl` (stereo not drawn), the survival was inactive: 83%. In the case of `Cc1ccccc1Nc1nn2c(=O)c3ccc(C(=O)NCCc4ccc(Cl)cc4)cc3nc2s1`, the survival is reported as inactive: 85%. In the case of `Cc1ccc2nc(Cl)c3cc(C(=O)N4CCCCC4C)sc3c2c1` (stereo not drawn), the survival is reported as inactive: 21%. With `NC(=O)C1CCN(CC(=O)N2N=CCC2c2ccccc2)CC1` (stereo not drawn) the survival was inactive: 88%. For `Cc1ccccc1CNC(=O)c1oc2c(c1C)-c1[nH]ncc1CC2`, the survival was inactive: 89%. `COc1ccc(Cl)cc1NC(=O)CN1C(=O)C(C)(C)c2cc(S(=O)(=O)N3CCCCC3)ccc21` was tested, and the survival was inactive: 81%. `CC(C)C1C(=O)Nc2ccc(S(=O)(=O)NCCc3ccc(Cl)cc3)cc21` (stereo not drawn) was tested, and the survival was inactive: 73%. `Cc1cccc(-n2ncc(C(=O)N3CCN(c4ccc(C)cc4C)CC3)c2C2CCN(C(=O)OC(C)(C)C)CC2)c1` was tested, and the survival was inactive: 93%. For `Cc1cc(N2CCN(C)CC2)nc2ccc(NC(=O)Nc3cccc(Cl)c3)cc12`, the survival was inactive: 67%. With `CCOc1ccc(Nc2c(S(=O)(=O)c3ccc(Cl)cc3)cnc3ccc(OCC)cc23)cc1` the survival was inactive: 79%. For `CCN1c2ccccc2-c2nc(SCC(=O)NCc3ccc(Cl)cc3)ncc2S1(=O)=O`, the survival was inactive: 64%. With `Cc1cn(C)c(CC(=O)NCc2ccccc2)c1C(=O)O` the survival was inactive: 80%. In the case of `Cc1ccsc1CN(C(=O)c1oc2ccc(Br)cc2c1C)C1CCS(=O)(=O)C1` (stereo not drawn), the survival is reported as inactive: 70%. For `CCOc1ccc(CCNC(=O)Cn2nnc(-c3ccccc3Cl)n2)cc1OCC`, the survival was inactive: 74%. For `Cc1c(C)n(Cc2ccc(F)cc2)c2ccc(C(=O)NCc3ccco3)cc12`, the survival was inactive: 82%. `CSc1ncc(C(=O)N2CCN(c3cccc(Cl)c3)CC2)c(C)n1` was tested, and the survival was active: -3%. In the case of `O=C(CC1C(=O)N(c2ccccc2)C(=O)N1CCc1cccs1)Nc1ccc(F)cc1` (stereo not drawn), the survival is reported as inactive: 66%. For `O=C(CCCn1c(=O)c2cccn2c2cccnc21)NCc1ccccc1Br`, the survival was inactive: 129%. `CSc1nc(-c2ccco2)nn1C(=O)c1ccc(C)cc1` was tested, and the survival was inactive: 108%. With `Cc1ccc(CNc2nc(-c3ccco3)nn2S(=O)(=O)c2ccc3ccccc3c2)cc1` the survival was inactive: 122%. For `O=C(CSc1ncc(-c2ccccc2)[nH]1)Nc1ccc(Cl)cc1`, the survival was inactive: 27%. In the case of `O=C(NCCN1CCN(c2cccc(Cl)c2)CC1)Nc1ccccc1C(F)(F)F`, the survival is reported as inactive: 120%. `CN(C(=O)c1ccco1)c1ccccc1C(=O)O` was tested, and the survival was inactive: 108%. In the case of `Cc1ccc(S(=O)(=O)Nc2cc3c(cc2NCc2ccccc2)n(C)c(=O)n3C)cc1`, the survival is reported as inactive: 76%. `Cc1ccc2c(c1)c1nnc(SCC(=O)N3CCCCC3C)nc1n2C` (stereo not drawn) was tested, and the survival was inactive: 108%. In the case of `CCOc1cc(NC(=S)NCCCN2CCOCC2)c(OCC)cc1NC(=O)C1CC1`, the survival is reported as inactive: 112%. For `CCOC(=O)c1sc2ccccc2c1S(=O)(=O)N1CCN(c2cccc(C)c2)C(C)C1` (stereo not drawn), the survival was inactive: 76%. For `COc1ccc2c(c1)CC(C(=O)NCCCN1CCN(c3cccc(Cl)c3)CC1)CO2` (stereo not drawn), the survival was inactive: 89%. For `O=C(Cn1c(=O)nc(-c2ccccc2)c2cc(Cl)ccc21)N1CCN(c2ccccc2F)CC1`, the survival was inactive: 69%. For `COc1ccc(CCNC(=O)c2cnn(-c3cccc(C)c3)c2C2CCN(C(=O)OC(C)(C)C)CC2)cc1OC`, the survival was inactive: 76%. `CC(C)COc1ccc(C(=O)N2CCCCC2CCN2CCCCC2)cc1` (stereo not drawn) was tested, and the survival was inactive: 83%. With `Cc1cc(NC(=O)CSc2nc(C3CCCCC3)nc3sc(C)c(C)c23)no1` the survival was inactive: 104%. With `COc1cccc2c1ncc1c(-c3ccc(C)cc3)nn(-c3ccc(F)cc3)c12` the survival was inactive: 66%. In the case of `Cc1cccc(-c2nnn3c2nc(NCc2ccc4c(c2)OCO4)c2ccccc23)c1`, the survival is reported as inactive: 102%. With `CC1Cc2ccccc2N1C(=O)CSc1nnc(CSc2ncccn2)n1C` (stereo not drawn) the survival was inactive: 105%. For `COc1ccc(OCC(=O)NCCO)cc1`, the survival was inactive: 116%. `CC(=O)c1ccc(NC(=O)c2noc3c2CSc2ccccc2-3)cc1` was tested, and the survival was inactive: 76%. `CN(C)c1ccc(-c2cc(-c3ccccc3)c(C#N)c(N)n2)cc1` was tested, and the survival was inactive: 108%. `CC1CCc2sc3ncnc(NCCCN(C)C)c3c2C1` (stereo not drawn) was tested, and the survival was inactive: 110%. In the case of `CCc1cc(C(=O)Nc2sc(C)c(CC)c2C#N)no1`, the survival is reported as inactive: 59%. `CCc1ccc(CN2CCc3nc(N4CCN(c5ccccc5F)CC4)ncc3C2)cc1` was tested, and the survival was inactive: 53%. `CCCCOc1cccc(C(=O)Nc2cc(NC(=O)c3ccco3)ccc2OC)c1` was tested, and the survival was inactive: 29%. In the case of `Cc1ccc(Cl)cc1N1CCN(C(=O)c2c(C)oc3ncnc(N4CCCCC4)c23)CC1`, the survival is reported as active: -6%. In the case of `Cc1ccc2c(c1)-c1c(cnc3cc(-c4ccc(F)cc4)nn13)CO2`, the survival is reported as inactive: 83%. In the case of `CCc1ccc(C2=C(C)C(N3CCC(C(=O)NCc4ccccc4)CC3)=NS2(=O)=O)cc1`, the survival is reported as inactive: 67%. In the case of `Cc1ccc(CNC(=O)c2c(O)nc3cc(C)ccn3c2=O)cc1`, the survival is reported as inactive: 88%. With `COc1ccc(-c2cnc(C)o2)cc1S(=O)(=O)Nc1c(C)cc(C)cc1C` the survival was inactive: 78%. For `CC(c1ccccc1)n1cc2c(c1-c1ccccc1Br)c(=O)n(C)c(=O)n2C` (stereo not drawn), the survival was inactive: 87%. With `CCC(CC)N1CCN(S(=O)(=O)CC)CC1` the survival was inactive: 95%.
